# From the supplement of paper PMC11417369
# This is one part of the list.
# System: PfHDP1 homeodomain (GST-tagged)
# Assay: gcPBM binding intensity (ln(normalized median fluorescence intensity)); higher = stronger DNA binding
# Outline: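 Binding of GST-tagged P. falciparum DNA-binding domains, expressed in E. coli and used at about 25 μg on average, was carried out for 1 h in 1× PBS containing 1% milk, 0.2 mg/ml BSA, 0.5% salmon testes DNA and 0.03% Triton X-100. The target was an Agilent 4 × 180k array of primer-extended double-stranded 36-bp intergenic genomic probes plus negative controls, read with Alexa488 anti-GST antibody at 488 nm. Binding intensity is the highest Masliner-normalised natural-log median intensity across replicate spots of either probe orientation.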
row,Sequence,gcPBM binding intensity (ln)
1,TACATACATACATACACACACACATATATATATATA [CACACA_site42],9.22
2,TCCTTCGAAACTAAAATTCATTTAAAATATTGATAT [CACACA_negctrl_site369],6.11
3,AAAGAAAAAAAAATTACACACATATATTATAGATAT [CACACA_site7495],6.37
4,ATATATGCTAATATATGTACTGATTATATCTCTTCA [XGTACX_site7156],6.47
5,AAAAAAAATATATAAACACACATATTTATATACGCA [CACACA_site1631],6.18
6,ATATAAACATTTAGTAATCCATATAGGTACTACTGA [CACACA_negctrl_site1249],6.02
7,TATTTATAGATATATACACACATATACATATTGTTT [CACACA_site7611],6.63
8,TCTTATCCATATATTACACACTATATATAGAAATTA [CACACA_site291],6.9
9,AGAAATGAAATCCAAAAACGAGGAACCAATAACGCA [CACACA_negctrl_site1758],6.52
10,AAGGCAAACAAACACACACACATATATACCTATATA [CACACA_site5203],6.89
11,ATATTATATTATTAATGTACATATATATAATTTTAA [XGTACX_site4974],6.47
12,AGATATCTTGTGAAATAAAAAAAATAATTGCTTATA [CACACA_negctrl_site798],6.1
13,AAATTAGACTATAATACACACATAAAAAAAAAAAAA [CACACA_site6155],6.45
14,ATATATATATATGTATGTACATATTTTTTTTAACAC [XGTACX_site8475],9.06
15,GCAGTATTTCGGAACACACAAACATAAATATGTATT [CACACA_site2316],6.44
16,ATATATATTTAAAGATGTACATAATGAAATGGTTAT [XGTACX_site4706],7.36
17,AAATTTATTTATTATAGTACACTTAATACTACCCAA [XGTACX_site41],6.33
18,AGCACAGACGGACACACACACACACCCACAGACACA [CACACA_site4358],6.66
19,GCACAATTTACACTTAAACACACAAAAAAAAATTAT [CACACA_site8642],6.8
20,CATCTTAGTTTGAGTTGTACAATATTTATAAAAATA [XGTACX_site693],6.69
21,ACAAGTTTAACATTTCGTACTTATTGTGTTTTTTTT [XGTACX_site5487],6.73
22,TATACACGCGGACACACACACACACGCAAAAAAAAA [CACACA_site6377],7.03

row,Sequence,gcPBM binding intensity (ln)
1,TTTACACCGTAATATGCATGTGTGTATATATTTTTG [TGCATGCA_site186],6.63
2,ATAAGCCATTTTTGTGGTACATAAAATAGATATATA [XGTACX_site5175],5.87
3,TAAAAACCAAAGAAAAGTACAAATTTAAATGAGAAA [XGTACX_site7450],6.68
4,TGAACTCATAGATTTAGTACATATATAAAAAAATTC [XGTACX_site1692],6.17
5,TTAAATGGAAAAATATGTACATATATATATATATTT [XGTACX_site2286],6.5
6,ATATTAAATTCAATTTAATGTTTTGTGAATTTTAGA [CACACA_negctrl_site1421],6.14
7,TAAACACCCATATAAACACACATACATACATACATA [CACACA_site5383],6.79
8,GATTAATTTAAAAAATGTACATTTTATTGTATAACC [XGTACX_site5539],6.55
9,ACAATATGTATATATATATATATGCAAATGTATAAA [CACACA_negctrl_site53],7.35
10,CCAAGAAACCAAAAAAGTACATACATGGTTATAATT [XGTACX_site4249],6.92
11,TTTTTTGTTATTGGCGTGCACATATCCATTTATAGT,9.48
12,CATATATATTTATGTACACACATTAATAAAAAAAAA [CACACA_site5741],6.41
13,CTTTTAATATTAAGATGTACTTAGAATTTTTTTTTT [XGTACX_site8338],6.36
14,TGTAGAGCGCAAAGTAGTACTACAAATTATGGAGGG [XGTACX_site3022],7.73
15,AACAGCATATCACATTTCTTCAAAAAAAAATAAAAT [CACACA_negctrl_site733],6.33
16,ATATATATAAATAATTGTACTTAAAAAAAAAAAAGG [XGTACX_site6847],6.51
17,TTTGTTAAAAATATATTATGAATAAAAATATATTTT [CACACA_negctrl_site170],6.03
18,TACAAAATAACTAGCACACATATGTATAAACATATA [CACACA_site5948],6.33
19,TATGTCAATCAAGCAAGTACATATATATATAAATAT [XGTACX_site7554],6.25
20,TTCAAAACTTAAAATCGTACAAGACAATTATTATAT [XGTACX_site6626],6.32
21,GCCATTGTACCATCCACACACATATATATATGTATA [CACACA_site2704],7.81
22,AATTATATTACGAAATGTACATATAATAATGTATAT [XGTACX_site4410],6.38
